Assay results as given in PubChem BioAssay (Tox21).
The inconclusive results got no clear call from the source; some entries with a clear call stand among them for comparison. For some assays here: Potencies of inconclusive entries are left out as doubtful fits. Calls of active or inactive are those of the source. Unless noted, calls follow the shape of the dose curve; as a rule, active = well fitted curve in the direction sought with a large enough effect in the repeat runs; inconclusive = weak or mixed curves; inactive = no such curve, though single readings can be large; an effect the other way counts as inactive or inconclusive.

Legend:
[1] = target: Estrogen receptor beta (Homo sapiens) (UniProt Q92731); test: qHTS assay to identify small molecule agonists of the estrogen receptor beta (ER-beta) signaling pathway (AID 1259377; active = well fitted activation curve with a large enough effect in the signal ratio in the repeat runs, not every such curve was filed as active; inconclusive = weak or mixed curves, or effect the other way; the % refers to the signal ratio; also: potency is read from the fitted curve at half-maximal effect; as to activation: % is scaled to controls: 0 for no effect and ±100 for the full control effect); conditions: ER-beta-UAS-bla HEK293T, beta-lactamase FRET ratio, 16 h; activation: at 92.4 µM (top of the series) unless noted
Chain of UniProt Q92731 (Q92731 whole entry, looked up): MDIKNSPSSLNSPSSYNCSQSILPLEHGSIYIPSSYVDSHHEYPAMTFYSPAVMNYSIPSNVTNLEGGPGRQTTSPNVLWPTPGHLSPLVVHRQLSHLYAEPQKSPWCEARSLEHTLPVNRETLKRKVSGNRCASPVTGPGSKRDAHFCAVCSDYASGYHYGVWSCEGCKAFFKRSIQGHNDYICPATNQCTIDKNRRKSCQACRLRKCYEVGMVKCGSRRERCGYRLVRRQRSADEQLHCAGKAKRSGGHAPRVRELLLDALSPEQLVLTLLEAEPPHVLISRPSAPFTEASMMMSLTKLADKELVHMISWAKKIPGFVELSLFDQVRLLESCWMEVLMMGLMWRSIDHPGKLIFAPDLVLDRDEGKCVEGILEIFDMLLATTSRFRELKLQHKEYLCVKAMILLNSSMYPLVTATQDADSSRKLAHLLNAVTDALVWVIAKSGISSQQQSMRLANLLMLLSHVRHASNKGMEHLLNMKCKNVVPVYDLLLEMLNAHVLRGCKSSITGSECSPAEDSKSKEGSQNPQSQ
Summary of the method: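 Measured by fluorescence intensity from a B/G FRET beta-lactamase substrate (2 h, room temperature) in ER-beta-UAS-bla HEK293T cells treated with DMSO-dissolved compounds for 16 hr at 37C and 5% CO2.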

[2] = qHTS assay to identify small molecule agonists of the estrogen receptor beta (ER-beta) signaling pathway - cell viability counter screen (AID 1259380); also: potency is read from the fitted curve at half-maximal effect; nearly all actives have a fitted effect of over 30% in size
Summary of the method: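 Luminescence read-out (CellTiter-Glo, 30 min, room temp) taken in the same wells as the beta-lactamase reporter assay; ER-beta-UAS-bla HEK293T cells exposed to DMSO-dissolved compounds for 16 hr at 37C in 2% charcoal-stripped FBS medium.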

[3] = qHTS assay to identify small molecule antagonists of the progesterone receptor (PR) signaling pathway - cell viability counter screen (AID 1346798); also: potency is read from the fitted curve at half-maximal effect; nearly all actives have a fitted effect of over 50% in size
Summary of the method: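 Viability was determined by ATP-based luminescence (CellTiter-Glo) in PR-UAS-bla HEK293T cells cultured in 2% charcoal-stripped serum and incubated 16 hr with compounds under R5020 stimulation.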

[4] = qHTS assay to identify small molecule agonists of the androgen receptor (AR) signaling pathway in the presence of an antagonist - cell viability counter screen (AID 1259379);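 also: MDA-kb2 human breast cancer cells carrying an MMTV luciferase reporter; % is scaled to controls: 0 for no effect and ±100 for the full control effect; nearly all actives have a fitted effect of over 25% in size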
Summary of the method: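 Viability counter screen: CellTiter-Fluor fluorescence, measured in the same wells as the luciferase read-out. MDA-kb2 cells, 3,000/well, with nilutamide at 3.0uM final and compounds at 15 concentrations, 16 hr at 37C, 0% CO2.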

[5] = target: Thyrotropin receptor (Homo sapiens) (UniProt P16473); test: qHTS assay to identify small molecule antagonists of the thyroid stimulating hormone receptor (TSHR) signaling pathway (AID 1259385; calls by dose curve; also: % is scaled to controls: 0 for no effect and ±100 for the full control effect; nearly all actives have a fitted effect of over 20% in size); conditions: TSHR-HEK293 cAMP HTRF, TSH-stimulated antagonist mode; activity change, negative = inhibition: at 92.4 µM (top of the series) unless noted
Chain of UniProt P16473 (P16473 whole entry, looked up): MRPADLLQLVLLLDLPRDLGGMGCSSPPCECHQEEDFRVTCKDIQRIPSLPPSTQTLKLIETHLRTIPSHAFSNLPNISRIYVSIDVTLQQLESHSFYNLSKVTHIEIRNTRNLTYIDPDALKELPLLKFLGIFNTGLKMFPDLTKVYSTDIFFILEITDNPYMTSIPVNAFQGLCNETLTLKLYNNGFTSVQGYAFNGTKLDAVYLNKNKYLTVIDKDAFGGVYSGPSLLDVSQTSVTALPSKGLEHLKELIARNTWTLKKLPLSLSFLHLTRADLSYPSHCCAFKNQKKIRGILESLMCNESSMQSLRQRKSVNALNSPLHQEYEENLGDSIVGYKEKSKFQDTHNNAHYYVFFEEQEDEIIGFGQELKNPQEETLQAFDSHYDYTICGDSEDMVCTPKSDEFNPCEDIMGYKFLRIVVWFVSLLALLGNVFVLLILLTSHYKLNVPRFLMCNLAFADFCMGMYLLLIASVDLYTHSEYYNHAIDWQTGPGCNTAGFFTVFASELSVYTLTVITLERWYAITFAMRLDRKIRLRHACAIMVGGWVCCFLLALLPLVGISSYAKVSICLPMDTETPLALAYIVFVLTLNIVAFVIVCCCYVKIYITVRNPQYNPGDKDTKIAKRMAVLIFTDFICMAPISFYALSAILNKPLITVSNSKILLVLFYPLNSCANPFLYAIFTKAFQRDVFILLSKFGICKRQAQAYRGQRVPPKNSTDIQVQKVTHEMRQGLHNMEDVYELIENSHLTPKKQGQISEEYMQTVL
Summary of the method: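 Antagonist mode: compound-treated TSHR-expressing HEK293 cells were stimulated with 1.5 ng/mL TSH (final) in presence of Ro20-1724 for 30 min at RT. HTRF cAMP detection after 1 h; each compound tested at 15 concentrations, triplicate.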

[6] = target: Progesterone receptor (Homo sapiens) (UniProt P06401); test: qHTS assay to identify small molecule antagonists of the progesterone receptor (PR) signaling pathway (AID 1346795; active = well fitted inhibition curve with a large enough effect in the signal ratio in the repeat runs, not every such curve was filed as active; inconclusive = weak or mixed curves; the % refers to the signal ratio; also: % is scaled to controls: 0 for no effect and ±100 for the full control effect); conditions: PR-UAS-bla HEK293T, beta-lactamase FRET ratio, 16 h; activity change, negative = inhibition: at 92.4 µM (top of the series) unless noted
Chain of UniProt P06401 (P06401 whole entry, looked up): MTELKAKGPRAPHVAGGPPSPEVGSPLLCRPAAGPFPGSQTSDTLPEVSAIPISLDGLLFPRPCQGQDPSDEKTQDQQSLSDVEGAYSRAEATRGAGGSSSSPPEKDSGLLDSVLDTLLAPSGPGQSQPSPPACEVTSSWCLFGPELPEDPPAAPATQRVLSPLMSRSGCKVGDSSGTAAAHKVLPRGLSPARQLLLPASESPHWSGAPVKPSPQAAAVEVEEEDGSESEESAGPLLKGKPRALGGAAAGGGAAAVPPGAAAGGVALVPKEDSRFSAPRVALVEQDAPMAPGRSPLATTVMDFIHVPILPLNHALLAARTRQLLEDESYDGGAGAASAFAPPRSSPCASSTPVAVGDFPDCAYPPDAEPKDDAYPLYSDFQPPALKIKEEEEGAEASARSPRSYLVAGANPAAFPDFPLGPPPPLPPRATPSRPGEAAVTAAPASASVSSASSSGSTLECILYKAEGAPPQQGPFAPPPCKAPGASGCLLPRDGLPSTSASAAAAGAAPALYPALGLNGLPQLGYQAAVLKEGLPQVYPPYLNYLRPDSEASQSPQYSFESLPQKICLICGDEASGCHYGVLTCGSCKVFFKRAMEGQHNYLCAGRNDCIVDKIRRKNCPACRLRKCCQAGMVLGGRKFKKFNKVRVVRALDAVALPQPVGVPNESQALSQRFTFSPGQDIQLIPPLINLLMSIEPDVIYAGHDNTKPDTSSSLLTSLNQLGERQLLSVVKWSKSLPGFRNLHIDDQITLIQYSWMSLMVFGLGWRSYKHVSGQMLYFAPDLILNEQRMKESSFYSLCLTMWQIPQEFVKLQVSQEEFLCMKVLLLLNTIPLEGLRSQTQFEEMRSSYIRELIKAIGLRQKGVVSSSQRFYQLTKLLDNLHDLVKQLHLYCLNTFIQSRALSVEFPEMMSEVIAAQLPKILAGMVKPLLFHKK
Summary of the method: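 After 6 hr plating at 37C in 2% stripped-serum medium, PR-UAS-bla HEK293T cells got compounds, then 1 nM R5020. Sixteen hours later, LiveBLAzer substrate was applied for 2 hr at room temperature and fluorescence was recorded.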

[7] = qHTS assay to identify small molecule agonists of the progesterone receptor (PR) signaling pathway - cell viability counter screen (AID 1346799; calls by dose curve; also: nearly all actives have a fitted effect of over 45% in size; also: potency is read from the fitted curve at half-maximal effect)
Summary of the method: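 Viability was scored by ATP luminescence (CellTiter-Glo, 30 min, room temperature) in the same wells used for the reporter readout, after 16 hr compound exposure of PR-UAS-bla HEK293T cells.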

[8] = target: Estrogen receptor beta (Homo sapiens) (UniProt Q92731); test: qHTS assay to identify small molecule antagonists of the estrogen receptor beta (ER-beta) signaling pathway (AID 1259378; active = well fitted inhibition curve with a large enough effect in the signal ratio in the repeat runs, not every such curve was filed as active; inconclusive = weak or mixed curves, or effect the other way; inactive = no such curve, though single readings can be large or run the other way; the % refers to the signal ratio; also: potency is read from the fitted curve at half-maximal effect); conditions: ER-beta-UAS-bla HEK293T, beta-lactamase FRET ratio, 16 h; activity, negative = inhibition: at 92.4 µM (top of the series) unless noted
Summary of the method: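 Antagonist mode: compounds added to beta-lactamase reporter HEK293T ER-beta-UAS cells stimulated with E2 (1nM final), 16 hr at 37C. LiveBLAzer B/G FRET substrate, 2 hours room temperature, fluorescence read-out.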

[9] = qHTS assay to identify small molecule agonists of the estrogen receptor alpha (ER-alpha) signaling pathway in the presence of an antagonist - cell viability counter screen (AID 1259386);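 also: cells exposed to compounds for 22 h at 37 °C before the viability read; nearly all actives have a fitted effect of over 30% in size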; also: potency is read from the fitted curve at half-maximal effect
Summary of the method: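 Read-out: CellTiter-Fluor fluorescence after 1hr reagent incubation, measured in the same wells as the luciferase readout. VM7Luc4E2 cells were exposed to 15 compound concentrations with 10.0nM ICI-182,780 for 22hr at 37C.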

[10] = target: Progesterone receptor (Homo sapiens) (UniProt P06401); test: qHTS assay to identify small molecule agonists of the progesterone receptor (PR) signaling pathway (AID 1346784; calls by dose curve; also: potency is read from the fitted curve at half-maximal effect; nearly all actives have a fitted effect of over 30% in size); conditions: PR-UAS-bla HEK293T, beta-lactamase FRET ratio, 16 h; activation: at 92.4 µM (top of the series) unless noted
Summary of the method: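 The screen uses PR-UAS-bla HEK 293T cells in charcoal-stripped serum (2%). Compounds are applied for 16 hr at 37C after a 6 hr pre-incubation, and reporter activity is detected with a FRET beta-lactamase substrate after 2 hr at room temperature.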

[11] = qHTS assay to identify small molecule antagonists of the TGF-beta/Smad signaling pathway - cell viability counter screen (AID 1346824); also: potency is read from the fitted curve at half-maximal effect; nearly all actives have a fitted effect of over 50% in size
Summary of the method: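 Cytotoxicity counter-screen run in the same wells as the beta-lactamase Smad reporter read: CellTiter-Glo luminescence after 30 min at room temperature. HEK 293T SBE-bla cells had 5 hr compound exposure at 37 C with TGF-beta1 (0.25 ng/mL stock).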

[12] = qHTS assay to identify small molecule antagonists of the estrogen receptor beta (ER-beta) signaling pathway - cell viability counter screen (AID 1259382); also: potency is read from the fitted curve at half-maximal effect; nearly all actives have a fitted effect of over 55% in size
Summary of the method: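 Luminescent ATP read-out (CellTiter-Glo, 30 min, RT) taken in the same wells as the bla reporter assay. HEK293T ER-beta-UAS-bla cells in 2% charcoal-stripped FBS were exposed to compounds with 1nM E2 for 16 hr at 37C.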
Tags tell the direction and shape of the fitted curve or compound fluorescence and quenching.

## N#CCC#N
[1]
  Potency: inconclusive [activator, full curve]
[2]
  Potency: inconclusive [rising, partial curve, poor fit]
[3]
  Potency: inconclusive [cytotoxic, partial curve, poor fit]

## O=C(O)c1cccc(Cl)c1
[1]
  Potency: inactive
[4]
  Potency: inactive
[5]
  Potency: inactive

## C=CC(=C)C
[1]
  Potency: inactive
[6]
  Potency: inactive
[7]
  Potency: inactive

## CC(C)CC(C)N (centres undefined)
[1]
  activation: inconclusive: 11.1%
[6]
  Potency: inactive

## Nc1c(Cl)c(Cl)c(Cl)c(Cl)c1Cl
[1]
  activation: inconclusive: 10.6%
[8]
  Potency: inconclusive [activator]
[9]
  Potency: inconclusive [cytotoxic, single point]
[10]
  Potency: active: 1.22 µM
[6]
  activity change, negative = inhibition: inconclusive: -25.6%
[3]
  Potency: inconclusive [cytotoxic, single point]
[7]
  Potency: inconclusive [rising, partial curve, poor fit]
[11]
  Potency: inconclusive [rising, partial curve, poor fit]

## O=CCCl
[1]
  activation: inconclusive: 10.1%
[2]
  Potency: inconclusive [rising, partial curve, poor fit]
[9]
  Potency: inactive
[11]
  Potency: inconclusive [cytotoxic, single point]

## CCCCNC(=O)OCC#CI
[1]
  Potency: inconclusive [rising, single point]
[12]
  Potency: inconclusive [cytotoxic, single point]
[5]
  activity change, negative = inhibition: inconclusive: 0.764%
[9]
  Potency: inconclusive [cytotoxic, partial curve]
[6]
  Potency: inactive
[11]
  Potency: inconclusive [cytotoxic, single point]
